{"source": "PubChem BioAssay AID1508642", "about": "(National Center for Advancing Translational Sciences (NCATS), 2021)", "note": "In all, about 43,000 compounds went through this assay and about 200 (0.47%) were called active. Inconclusive results (about 12%) are left out. Calls come from the whole dose curve; as a rule, active = well fitted cell-killing curve with a large enough effect; inconclusive = small, poorly fitted or top-dose-only effect, or effect the other way; inactive = flat fitted curve, though single readings scatter. The list shows a part of the results. % is set by controls: 0 for no effect and ±100 for the full control effect."}
{"assay": "Cell viability qHTS assay in S16 Pmp22-F2sN cells; note: nearly all actives have a fitted effect of over 65% in size", "conditions": "S16 Pmp22-F2sN Schwann cells (luciferase reporters placed in the Pmp22 gene) viability, CellTiter-Glo, 24 h; series mostly up to 57.5 µM; activity change, negative = cytotoxicity: at the top concentration", "outline": "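S16 Schwann cells carrying the Pmp22-F2sN reporter, seeded in 1536-well format, were exposed to library compounds for 24 h at 37C. Viability was read as CellTiter-Glo luminescence after 15 min at room temperature.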"}
{"smiles": "CN(C)c1ccc(CNc2nc(-c3ccco3)nn2S(=O)(=O)c2ccc3ccccc3c2)cc1", "activity change, negative = cytotoxicity": "inactive: 6.67%"}
{"smiles": "Cc1c(Cl)ccc2sc(N3CCN(C(=O)c4ccco4)CC3)nc12", "activity change, negative = cytotoxicity": "inactive: -6.7%"}
{"smiles": "Cc1ccc(CCNC(=O)CN(c2ccc(C)cc2)S(=O)(=O)c2c(C)noc2C)cc1", "activity change, negative = cytotoxicity": "inactive: -4.61%"}
{"smiles": "COc1ccccc1CNc1ccc(-c2nc(C(C)C)no2)cc1[N+](=O)[O-]", "activity change, negative = cytotoxicity": "inactive: -27.7%"}
{"smiles": "O=C(Nc1ccc(F)cc1)[C@H](Cc1ccccc1)N1Cc2ccccc2C1=O", "activity change, negative = cytotoxicity": "inactive: -17.3%"}
{"smiles": "CC(C)CCOc1ccc(C(=O)Nc2sc3c(c2C#N)CCCCC3)cc1", "activity change, negative = cytotoxicity": "inactive: 0.706%"}
{"smiles": "Cn1nnnc1SCCCNCc1cccc(OCc2ccc(Cl)cc2)c1", "activity change, negative = cytotoxicity": "inactive: -28.3%"}
{"smiles": "Cc1ccccc1-c1nc(CNC(=O)Nc2ccccc2)c(C)o1", "activity change, negative = cytotoxicity": "inactive: 6.08%"}
{"smiles": "Cc1ccc(C(=O)Nc2ccc(Cl)c(-c3nc4ncccc4o3)c2)c(C)c1", "activity change, negative = cytotoxicity": "inactive: -4.82%"}
{"smiles": "CCOC(=O)C1CCN(C(c2ccccc2OC)c2c(O)cc(C)n(CCOC)c2=O)CC1", "note": "(centres undefined)", "activity change, negative = cytotoxicity": "inactive: -7.71%"}
{"smiles": "COc1cccc(-c2nc(-c3ccc(-c4ccccc4)nc3OC)no2)c1", "activity change, negative = cytotoxicity": "inactive: 0.246%"}
{"smiles": "Cc1ccc(OC(=O)c2cc(-c3ccc4c(c3)OCCO4)on2)c(C)c1", "activity change, negative = cytotoxicity": "inactive: 1.88%"}
{"smiles": "Cc1ccc(Cn2cccc2C2=NC(C)(C)CO2)cc1", "activity change, negative = cytotoxicity": "inactive: 1.22%"}
{"smiles": "COc1ccccc1OC(C)C(=O)NCC1(N2CCOCC2)CCCCC1", "note": "(centres undefined)", "activity change, negative = cytotoxicity": "inactive: 1.6%"}
{"smiles": "COc1ccc(NC(=O)CCNS(=O)(=O)c2cccc3nonc23)cc1", "activity change, negative = cytotoxicity": "inactive: -2.19%"}
{"smiles": "CCCCOc1ccc(-c2nonc2NC(=O)c2ccco2)cc1", "activity change, negative = cytotoxicity": "inactive: -5.53%"}
{"smiles": "CCCC(=O)N1c2ncnn2C2(CCCCC2)[C@@H]2CCCC[C@@H]21", "activity change, negative = cytotoxicity": "inactive: -16.3%"}
{"smiles": "COc1ccc(N2CCN(C(=O)Cn3cnc4nc5c(cc4c3=O)CCCC5)CC2)cc1", "activity change, negative = cytotoxicity": "inactive: -14.7%"}
{"smiles": "Cc1ccc(S(=O)(=O)NCCc2nnc3ccc(SCc4ccccc4C)nn23)cc1", "activity change, negative = cytotoxicity": "inactive: -1.42%"}
{"smiles": "COc1ccc(/C=C\\c2onc(C)c2S(=O)(=O)N2CCC(C(=O)Nc3ccccc3OC)CC2)cc1", "activity change, negative = cytotoxicity": "inactive: -1.25%"}
{"smiles": "CCOC(=O)c1cccc(NC(=O)c2cc(CN3CCCC3)on2)c1", "activity change, negative = cytotoxicity": "inactive: 13%"}
{"smiles": "Cc1cc(C)c2oc(C(=O)Nc3sc4c(c3C(=O)NCc3ccco3)CCC4)cc(=O)c2c1", "activity change, negative = cytotoxicity": "inactive: 4.51%"}
{"smiles": "Cc1ccc(C)c(CN2C(=O)c3ccccc3S(=O)(=O)c3ccc(C(=O)Nc4ccccc4C(F)(F)F)cc32)c1", "activity change, negative = cytotoxicity": "inactive: 10%"}
{"smiles": "CN1CCN(C(=O)C(=O)Nc2c3c(nn2-c2ccc(F)cc2)CSC3)CC1", "activity change, negative = cytotoxicity": "inactive: 6.78%"}
{"smiles": "Cc1ccc(NC(=O)/C=C/c2ccccc2)c(Br)c1", "activity change, negative = cytotoxicity": "inactive: 19.6%"}
{"smiles": "COc1ccc(-c2nc3scc(CCNS(=O)(=O)c4c(C)noc4C)n3n2)cc1", "activity change, negative = cytotoxicity": "inactive: 14.7%"}
{"smiles": "Cc1ccccc1CNC(=O)C1CCN(c2nnc(C)c3c(C)n(-c4ccccc4)nc23)CC1", "activity change, negative = cytotoxicity": "inactive: -2.69%"}
{"smiles": "CCc1ccc(-c2nc3ccc(Br)cc3c(C(=O)O)c2C)s1", "activity change, negative = cytotoxicity": "inactive: 10.2%"}
{"smiles": "O=C(Cn1c(=O)n(Cc2ccc3c(c2)OCO3)c(=O)c2oc3ccccc3c21)Nc1ccccc1", "activity change, negative = cytotoxicity": "inactive: 0.866%"}
{"smiles": "CCc1nnc(NC(=O)c2cc(=O)c3cc(C)c(C)cc3o2)s1", "activity change, negative = cytotoxicity": "inactive: -0.709%"}
{"smiles": "COc1cc(-c2noc(-c3cc4cc(F)ccc4oc3=O)n2)cc(OC)c1OC", "activity change, negative = cytotoxicity": "inactive: 16.4%"}
{"smiles": "CN1C(=O)C2(c3ccccc31)N(c1ccccc1)C(=O)CS2(=O)=O", "note": "(centres undefined)", "activity change, negative = cytotoxicity": "inactive: -5.1%"}
{"smiles": "CCn1c(C(=O)NCc2cccc(Br)c2)cc2oc3ccccc3c21", "activity change, negative = cytotoxicity": "inactive: 5.88%"}
{"smiles": "O=C(CSc1cn(CC(=O)N2CCCCC2)c2ccccc12)Nc1ccccc1F", "activity change, negative = cytotoxicity": "inactive: -9.89%"}
{"smiles": "COc1ccccc1-c1noc(CSc2nc3ccc(C)cc3[nH]2)n1", "activity change, negative = cytotoxicity": "inactive: -18.6%"}
{"smiles": "COc1ccc(C(=O)c2cn(Cc3ccc(C)cc3)c3cc4c(cc3c2=O)OCO4)cc1", "activity change, negative = cytotoxicity": "inactive: -23.1%"}
{"smiles": "CCOc1ccccc1NC(=O)CSc1nccn1-c1ccc(Cl)cc1", "activity change, negative = cytotoxicity": "inactive: 13.2%"}
{"smiles": "Cc1c(Cl)cccc1NC(=O)CCn1c(=O)c2cccn2c2ccccc21", "activity change, negative = cytotoxicity": "inactive: 2.14%"}
{"smiles": "Cc1ccc2c(CC(=O)Nc3ccccc3C(F)(F)F)coc2c1C", "activity change, negative = cytotoxicity": "inactive: 0.553%"}
{"smiles": "CN1CCN(C(CNC(=O)C(=O)Nc2ccc(F)cc2F)c2ccc3c(c2)OCO3)CC1", "note": "(centres undefined)", "activity change, negative = cytotoxicity": "inactive: 8.6%"}
{"smiles": "CCOc1ccc(CCNC(=O)Cn2nnc(-c3ccc(OC)c(OC)c3)n2)cc1OCC", "activity change, negative = cytotoxicity": "inactive: 4.98%"}
{"smiles": "CC(C)Oc1ccc(CNS(=O)(=O)c2cnc(N)nc2)cc1", "activity change, negative = cytotoxicity": "inactive: 9.99%"}
{"smiles": "O=C(NC1CCCCC1)c1ccc2c(c1)N(Cc1ccccc1)C(=O)c1ccccc1S2", "activity change, negative = cytotoxicity": "inactive: 3.06%"}
{"smiles": "CCCc1nn2c(=O)cc(COC(=O)c3ccc(NC(=O)C(C)Oc4ccccc4)cc3)nc2s1", "note": "(centres undefined)", "activity change, negative = cytotoxicity": "inactive: 0.0044%"}
{"smiles": "CCCCNc1nc(Oc2ccc(=O)n(C)n2)nc(N(C)C)n1", "activity change, negative = cytotoxicity": "inactive: 0.56%"}
{"smiles": "CSc1nc(-c2ccc(F)cc2)nc2c1Cc1c(CO)cnc(C)c1O2", "activity change, negative = cytotoxicity": "inactive: -0.508%"}
{"smiles": "COc1cc(NC(=O)c2nnn(CC(=O)Nc3ccccc3)c2N)cc(OC)c1", "activity change, negative = cytotoxicity": "inactive: 10.2%"}
{"smiles": "Cc1cc2c(cc1S(=O)(=O)N1CCC(C)CC1)OCC(=O)N2", "activity change, negative = cytotoxicity": "inactive: 6.46%"}
{"smiles": "Cc1c(C(=O)NCc2ccc(N(C)C)cc2)oc2c1-c1nn(Cc3cccc(Cl)c3)cc1CC2", "activity change, negative = cytotoxicity": "inactive: -7.2%"}
